Screen size: about 340,000 compounds; about 6,900 (2%) were called active. Cut-off read from the data, not from the text of the source: active = inhibition above about 30%; inactive = below that, where a call was filed. This is a selection; strong and weak results do not stand in their true shares. The source gives no active or inactive call for entries shown without one.
Each compound was assayed against D(2) dopamine receptor (Homo sapiens) (UniProt P14416) (assay: HTS Assay for Allosteric Antagonists of the Human D2 Dopamine Receptor: Primary Screen for Antagonists). Conditions: HEK293 TREx D2 cells, calcium flux, dopamine EC80; at 10 µM; stronger effect = higher value.
Chain of UniProt P14416 (P14416 whole entry, looked up): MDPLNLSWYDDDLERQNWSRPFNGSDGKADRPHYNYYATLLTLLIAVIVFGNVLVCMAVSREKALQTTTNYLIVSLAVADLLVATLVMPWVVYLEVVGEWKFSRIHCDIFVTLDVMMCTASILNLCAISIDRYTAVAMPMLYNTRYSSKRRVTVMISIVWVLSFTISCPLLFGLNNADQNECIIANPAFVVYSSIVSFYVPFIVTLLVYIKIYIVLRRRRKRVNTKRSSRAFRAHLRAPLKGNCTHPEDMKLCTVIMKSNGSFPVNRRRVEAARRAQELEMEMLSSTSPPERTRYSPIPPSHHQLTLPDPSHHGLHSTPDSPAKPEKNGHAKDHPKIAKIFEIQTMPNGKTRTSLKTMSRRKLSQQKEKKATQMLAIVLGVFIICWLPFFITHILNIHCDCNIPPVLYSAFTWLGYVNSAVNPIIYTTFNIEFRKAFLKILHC
Outline: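 Inhibition of EC80 dopamine-driven calcium flux, recorded kinetically, defines activity here; cells are a tetracycline-induced HEK293 T-REx line expressing force-coupled D2.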
`CCc1cccc(C)c1NC(=O)C1CCN(c2nn3c(=O)cc(C)nc3s2)CC1` was tested, and the inhibition was 0.43%.
Compound `COc1ccc(-c2cc(C(F)(F)F)nc(SCC(=O)N3CCCCC3C)n2)cc1OC` (stereo unspecified) has an inhibition of 0.659%.
For `COc1ccccc1N1CCN(CC(O)COCc2cccs2)CC1` (stereo unspecified), the inhibition was active: 80.7%.
For `Cc1ccc2oc(=O)c3cc(C(=O)Nc4ccccc4C(N)=O)sc3c2c1`, the inhibition was -1.55%.
In the case of `Cc1onc(-c2c(F)cccc2Cl)c1C(=O)Nc1ccc(OC(C)C)cc1`, the inhibition is reported as -7.73%.
For `CCOC(=O)C1CCCN(C(=O)Cn2ncc3c(C)n(Cc4ccccc4F)c(C)c3c2=O)C1` (stereo unspecified), the inhibition was 3.73%.
`COc1cc(C2C(=O)N(C3CCCCC3)CC(=O)N2CCC2=CCCCC2)ccc1OC(C)C` (stereo unspecified) gave an inhibition of 4.38%.
`Cc1cc(C)cc(NC2=C(c3ccccc3)C(=O)c3ccccc32)c1` showed an inhibition of -0.667%.
Work on `COC(=O)CNC(c1ccccc1)c1cc(Br)ccc1NC(=O)c1ccccc1` (stereo unspecified) yielded an inhibition of 24.7%.
Compound `COc1cccc(-n2cc(C(=O)Nc3cc(OC)c(OC)c(OC)c3)c3ccccc3c2=O)c1` has an inhibition of -3.98%.
Compound `CCOC(=O)c1cccc(NC(=O)c2cc(S(=O)(=O)N3CCCC(C)C3)cn2C)c1` (stereo unspecified) has an inhibition of -3.88%.
In the case of `CC1=C(C(N)=O)C(c2ccc(C)cc2)n2nc(SCc3ccccc3F)nc2N1` (stereo unspecified), the inhibition is reported as -0.404%.
In the case of `CC(C)OCCCNc1ncnc2c1nc1n2CCCC1`, the inhibition is reported as active: 32.5%.
For `CC(=O)Nc1ccccc1-c1nc2ccccc2n(CC(=O)c2ccc(Br)cc2)c1=O`, the inhibition was -15.2%.
With `O=[N+]([O-])c1ccccc1Nc1ccc(O)cc1` the inhibition was active: 48.5%.
With `Cc1ccc(S(=O)(=O)NCCSc2ncccn2)cc1` the inhibition was active: 86.4%.
Work on `CCCCOc1ccc(CNC(=O)c2ccc(-c3nc(CN4CCc5ccccc54)c(C)o3)cc2)cc1` yielded an inhibition of 16.6%.
For `Cc1ccc(C(CC(=O)O)NC(=O)CN2C(=O)c3ccccc3C2=O)cc1` (stereo unspecified), the inhibition was active: 42.8%.
For `CCc1ccc2oc(-c3cccc(NC(=O)c4cc5ccccc5o4)c3)nc2c1`, the inhibition was -9.02%.
Work on `Cc1nc2c(C(=O)O)cnn2c(C)c1Cc1ccccc1` yielded an inhibition of 7.72%.
In the case of `CCCc1nn2c(=O)cc(COC(=O)c3ccc(NC(=O)CCc4ccccc4)cc3)nc2s1`, the inhibition is reported as 2.38%.
`Cc1ccccc1C(=O)Nc1nc2nc(C)c(C)c(=O)n2[nH]1` gave an inhibition of -4.51%.
With `Cc1ccc(C(=O)CSc2ncc3c(n2)-c2ccccc2N(Cc2ccc(Cl)cc2)S3(=O)=O)cc1` the inhibition was -3.52%.
In the case of `COCCNc1oc(-c2ccc(COc3ccc(OC)cc3)o2)nc1C#N`, the inhibition is reported as -2.66%.
With `Cc1cc2nc3s/c(=C/c4ccc(-c5ccccc5C(=O)O)o4)c(=O)n3c2cc1C` the inhibition was active: 33.8%.
For `Cc1ccc2c(c1)c(=O)c(C(=O)c1ccc3c(c1)OCO3)cn2Cc1cccc(F)c1`, the inhibition was 2.67%.
For `Cc1ccc(-c2nn(-c3ccc(F)cc3F)c3c2cnc2c(F)cccc23)cc1`, the inhibition was -1.45%.
In the case of `Cc1ccc(NC(=O)CSc2nc3ccccc3c3nc(CCc4c(C)n[nH]c4C)nn23)c(C)c1`, the inhibition is reported as 7.15%.
In the case of `CCOC(=O)c1cnc2c(ccc3ccccc32)c1Nc1ccccc1OC`, the inhibition is reported as -9.96%.
In the case of `CC(C)CCOC(=O)C1C2C=CC3(CN(Cc4cccs4)C(=O)C13)O2` (stereo unspecified), the inhibition is reported as active: 33.2%.
In the case of `Cc1ccc(S(=O)(=O)CCC(=O)Nc2ccc(Br)cc2C)cc1`, the inhibition is reported as 5.83%.
In the case of `COc1ccc(NC(=O)Cn2c(=O)cc(C)c3c(C)nn(-c4cccc(Cl)c4C)c32)cc1OC`, the inhibition is reported as -23.9%.
For `O=C(NC1CC(=O)N(c2ccc3c(c2)OCCO3)C1)c1c(F)cccc1Cl` (stereo unspecified), the inhibition was 22.8%.
Work on `O=C(NCCc1csc(-c2ccc(F)cc2)n1)c1cccs1` yielded an inhibition of 2.93%.
`CCOC(=O)c1cc(-c2ccccc2)n(CC(=O)NC2CCC(C)CC2)c1C` (stereo unspecified) showed an inhibition of 19.6%.
With `COc1ccc(-c2noc(CSc3nnc(Cc4ccccc4)n3-c3ccccc3)n2)cc1OC` the inhibition was 0.299%.
For `Cc1ccc2[nH]c(C(=O)Nc3ccccc3)cc2c1`, the inhibition was 1.71%.
Compound `CCOc1cc(C2NC(=O)c3c(sc4c3CCN(C)C4)N2)ccc1OC(=O)c1ccccc1Cl` (stereo unspecified) has an inhibition of 9.81%.
Compound `Cc1ccc(CN2COc3cc(C)c4c(oc(=O)c5ccccc54)c3C2)cc1` has an inhibition of 7.2%.
Compound `CN1CCN(CCCNC(=O)Cn2c(-c3cccs3)cc3cc(Cl)ccc32)CC1` has an inhibition of -1.6%.
For `Cc1cc(-c2cc(C(=O)NC3CCCC3)on2)nc(NCC2CC2)n1`, the inhibition was active: 33.4%.
With `Cc1ccc(-c2[nH]c(-c3ccc(Cl)cc3)nc2SCC(=O)NCC2CCCO2)cc1` (stereo unspecified) the inhibition was active: 60.9%.
For `CCOc1ccc(NC(=O)c2cnn(-c3ccc(C)c(Cl)c3)c2C2CCNCC2)cc1`, the inhibition was -1.09%.
In the case of `COc1cc(OC)c(NC(=O)C(NS(=O)(=O)c2cccc3nsnc23)c2ccccc2)cc1Cl` (stereo unspecified), the inhibition is reported as -10.9%.
`COCC(C)NC(=O)c1cnn2c(C(F)F)cc(-c3ccccc3)nc12` (stereo unspecified) was tested, and the inhibition was -1.04%.
`CN(C(=O)Cn1cc(S(=O)(=O)N2CCN(c3ccccc3F)CC2)c2ccccc2c1=O)c1ccc(Cl)cc1` showed an inhibition of -5.28%.
`O=C(NCCCN1CCN(c2ccccc2F)CC1)c1cc2c(Cl)nc3ccccc3c2s1` was tested, and the inhibition was -22.6%.
In the case of `CC(NS(=O)(=O)c1ccc(OCC(=O)N2CCOCC2)cc1)c1ccccc1` (stereo unspecified), the inhibition is reported as active: 30.5%.
Work on `Cc1ccc(C(=O)Nc2ccccc2C(=O)O)cc1S(=O)(=O)N1CCCCCC1` yielded an inhibition of -21.3%.
For `CCCCCOc1ccc(NC(=O)Cc2csc(C)n2)cc1`, the inhibition was -19.7%.
For `O=C(Nc1sc2c(c1C(=O)Nc1ccc(Cl)cc1)CCCC2)c1cccs1`, the inhibition was 4.98%.
For `Cc1nnc(SCc2ccccc2Cl)c2cc3sccc3n12`, the inhibition was 5.41%.
Compound `CC(=O)c1ccc(NC(=O)c2cc(-c3ccc4c(c3)OCO4)on2)cc1` has an inhibition of 6.15%.
`CCc1ccc(-c2nc(CN3CCCC(C(=O)NCc4ccc(C)cc4)C3)c(C)o2)cc1` (stereo unspecified) gave an inhibition of -4.08%.
With `COc1ccc(-c2cc3nc(C)c(CCC(=O)Nc4cccc(C(F)(F)F)c4)c(C)n3n2)c(OC)c1` the inhibition was 0.585%.
Compound `CCn1cc2nc(SCC(=O)Nc3ccccc3F)n(Cc3ccc(C)cc3)c(=O)c2n1` has an inhibition of -1.25%.
`Cc1ccnc(NC(=O)c2c(C)oc3ncn(CC(C)C)c(=O)c23)c1` was tested, and the inhibition was 11%.
With `Cc1ccc(CNC(=O)Nc2cn(CC(C)C)c(=O)c3ccccc23)cc1` the inhibition was 2.64%.
In the case of `O=C(CSc1nc2c([nH]c3ccccc32)c(=O)n1-c1ccc(F)cc1)NCc1ccc(F)cc1`, the inhibition is reported as -13.3%.
`CCOc1ccc(CCNC(=O)c2ccc3c(c2)nc2n3CCOC2)cc1OCC` was tested, and the inhibition was 0.607%.
`CC(C)OCCCNC(=O)CCCn1c(SCC(N)=O)nc2c(sc3ccccc32)c1=O` was tested, and the inhibition was -5.79%.
In the case of `Cc1ccc(Cl)cc1NC(=O)C1CCN(C(=O)c2cnn(-c3ccccc3)c2-n2cccc2)CC1`, the inhibition is reported as 13.1%.
With `O=C(Nc1cccc(C(=O)OCc2cc(=O)n3c4c(sc3n2)CCCC4)c1)c1cccc(Cl)c1` the inhibition was -11.2%.
With `Cn1cnc2c(=O)oc3ccc(S(=O)(=O)N4CCN(c5ccccc5F)CC4)cc3c21` the inhibition was 5.46%.
`COc1cccc(NC(=O)Cn2nnc(C(=O)NCCc3ccccc3)c2N)c1` gave an inhibition of 18.4%.
Work on `Cc1nc(-c2ccc(S(=O)(=O)N(Cc3ccccc3)C(C)C)cc2)co1` yielded an inhibition of -10.1%.
`Cn1cc(C(=O)Nc2ccc(C#N)cc2)c2ccccc2c1=O` was tested, and the inhibition was -12%.
Work on `COc1ccc(CCn2c(=O)c3cccnc3n(CC(=O)Nc3ccc(C)cc3C)c2=O)cc1OC` yielded an inhibition of 15.5%.
`CCN(CC)c1ccc(NC(=O)CN2CCN(S(=O)(=O)c3cc(Cl)ccc3OC)CC2)cc1` gave an inhibition of -5.35%.
With `CN(C(=O)C1CCN(c2ncnc3c2nc2n3CCCCC2)CC1)c1ccccc1F` the inhibition was 5.03%.
In the case of `COc1ccc(NC(=O)CSc2nc(-c3ccccc3)[nH]c2-c2ccccc2)cc1OC`, the inhibition is reported as 0.291%.
For `CC(C)C(NS(=O)(=O)c1ccc2c(c1)oc(=O)n2C)C(=O)NCc1ccccc1` (stereo unspecified), the inhibition was 12.1%.
`CC(=O)c1ccc(N2CCN(C(=O)c3cc4c(s3)-c3ccccc3OC4)CC2)cc1` gave an inhibition of -14.3%.
`Cc1oc(-c2ccc(C(=O)NCc3ccccc3F)cc2)nc1COc1ccccc1` showed an inhibition of -15.8%.
Compound `O=C(CCS(=O)(=O)c1nc(-c2cccs2)cc(C(F)(F)F)n1)Nc1ccc(F)c(Cl)c1` has an inhibition of -11.5%.
`Cc1ccc(NC(=O)C2CCN(S(=O)(=O)c3ccc4c(c3)CCCN4C(=O)C3CCC3)CC2)cc1` was tested, and the inhibition was -25.3%.
Compound `O=C(NCCCN1CCCCC1)c1[nH]c2ccccc2c1Sc1ccc(Cl)cc1` has an inhibition of 12.9%.
With `Cc1cc(C)nc(NS(=O)(=O)c2ccc(NC(=O)c3nc(SC(C)C)ncc3Cl)cc2)n1` the inhibition was 12.5%.
Work on `Cc1c(Cl)cccc1-n1ncc(C(=O)N2CCC(C)CC2)c1C1CCN(C(=O)OC(C)(C)C)CC1` yielded an inhibition of -7.09%.
With `CCc1nn(CC(=O)N2CCN(c3cccc(Cl)c3)CC2)c(=O)c2cc3sccc3n12` the inhibition was 2.01%.
For `CCOc1ccc(NC(=O)Cn2c(=O)n(Cc3ccco3)c(=O)c3ccc(C(=O)NC4CCCC4)cc32)cc1`, the inhibition was 4.01%.
In the case of `CCCN(CCC)CCCNC(=O)c1ccc2c(c1)N(CC)C(=O)c1ccccc1S2=O` (stereo unspecified), the inhibition is reported as active: 107%.
With `CCOc1ccc(N2CC(C(=O)NCc3ccc4c(c3)OCO4)CC2=O)cc1` (stereo unspecified) the inhibition was active: 36%.
For `O=C1CC(c2cccc(Cl)c2Cl)c2cc3c(cc2N1)OCCO3` (stereo unspecified), the inhibition was 12.3%.
Compound `COc1cc(OC)c(NC(=O)Cn2c(SCc3ccccc3F)nc3cccnc32)cc1Cl` has an inhibition of 1.51%.
For `Cc1ccccc1Cn1nc(C)c(NC(=O)c2cc(CC(C)C)on2)c1C`, the inhibition was 8.73%.
For `COCCn1c(-c2ccc(NC(C)=O)cc2)nc2c1c(=O)[nH]c(=O)n2CC(C)C`, the inhibition was active: 30.5%.
In the case of `CCOc1ccc(NC(=O)Cn2nc(SC)c(S(=O)(=O)c3ccccc3)c2N)cc1`, the inhibition is reported as 10.6%.
Work on `CC(=O)c1ccc(N2CCN(c3nc4ccccc4c4nc(-c5cccc(C)c5)nn34)CC2)cc1` yielded an inhibition of -10.3%.
In the case of `Cc1ccc(Cn2ccnc2SCC(=O)Nc2ccccc2C(F)(F)F)cc1`, the inhibition is reported as 0.812%.
`COc1ccc(OC)c(NC(=O)CCn2cccn2)c1` was tested, and the inhibition was -3.07%.
`CCCn1c2ccccc2c2cnn(CC(=O)NCc3ccc(OC)cc3)c(=O)c21` showed an inhibition of -6.2%.
`CCOC(=O)c1ccccc1NC(=O)NCc1cccn1Cc1ccc(F)cc1` showed an inhibition of 13.3%.
`Cc1cc(Cl)ccc1OCC(=O)N1CCC(c2nc3ccccc3o2)CC1` was tested, and the inhibition was 6.84%.
With `CCOc1ccc(NC(=O)N2CCC(c3ccc(C)cc3)C2)cc1` (stereo unspecified) the inhibition was 8.47%.
`O=C(COc1ccc(F)cc1)Nc1ccc(C(=O)OCc2cc(=O)n3nc(C4CC4)sc3n2)cc1` showed an inhibition of -2.99%.
Note: 0% is about no effect.
